Measured values: the supplement of paper PMC11417369
± gives the standard deviation of the averaged measurements. The list shows a part of the results.

What follows are sequences tested on PfAP2-I AP2 domain 3 (GST-tagged) (assay: gcPBM binding intensity (ln(normalized median fluorescence intensity)); higher = stronger DNA binding).
Method in brief: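 Each value is the highest Masliner-normalised natural-log median intensity across replicate spots of either orientation of a probe. The probes were primer-extended double-stranded 36-bp intergenic genomic sequences on an Agilent 4 × 180k array, alongside negative controls, exposed for 1 h to GST-tagged P. falciparum DNA-binding domains expressed in E. coli. Bound protein was picked up with Alexa488 anti-GST antibody and scanned at 488 nm.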

Row | Sequence | gcPBM binding intensity (ln)
1 | CATTTTATTTTCTTTGTGCACAAAAATATTTTTTCT | 11.13 ± 0.092
2 | TTGTAACAAAAGTACACACACATTTCTATAAATTTT [CACACA_site2772] | 7.91 ± 0.33
3 | TTTATATACTATCAACGTACAAAAGTAATAAAAATA [XGTACX_site4343] | 7.68 ± 0.39
4 | GGATTTTACCATAGCACACATATATGAATATTTTTC [CACACA_site1814] | 8.14 ± 0.71
5 | TGTTCTAATTTTAATTGTACATATATACATATATAT [XGTACX_site7290] | 7.67 ± 0.3
6 | AAAGTTATGATATATACACACATATAAATATTAAAT [CACACA_site6361] | 7.82 ± 0.64
7 | GTAAATATATATATATATATATATATATATATATAT [GTGCAC_negctrl_site239] | 9.45 ± 0.35
8 | AACATATAAAAATATGCACACACAGGAATACAAACA [CACACA_site8127] | 8.79 ± 0.61
9 | TTCTGTATACGGTGTGCACACAATTAAAAAAAAAAA [CACACA_site1416] | 9.735 ± 0.007
10 | TTAAATAACCTCAAGGATAAGAAAAAATTAAAAATT [CACACA_negctrl_site1336] | 7.5 ± 0.84
11 | GAAATAATAAAATCGACACACAAAAAAAAAAAAAAA [CACACA_site3476] | 8.2 ± 0.54
12 | CTATTTAAAATTTGAACACACATTATTTATTTTAAA [CACACA_site3114] | 7.62 ± 0.45
13 | CTTTATATATATTGCGTGCACATTTTTTTTTTTTTT | 10.1 ± 0.59
14 | TCAATATATATAAGAAGTACATGTGAATGAAAAAAA [XGTACX_site1674] | 8.11 ± 0.57
15 | AATAAATACAAAAATGTACACACATATATATATTTT [CACACA_site9167] | 7.88 ± 0.19
16 | AAAAAAAAAAAACATACACACACACTAATATTTATA [CACACA_site8038] | 7.58 ± 0.29
17 | GACTTTTTCATTTTTAGTACACATATATATTTCCCT [XGTACX_site3511] | 8.62 ± 0.52
18 | ATATATTTTTAATATGCACACAAGAATACATTCACA [CACACA_site914] | 9.195 ± 0.007
19 | TTAAAAAATCACAACACACACACACCCAAAAAAAAA [CACACA_site1445] | 8.43 ± 0.29
20 | TTTTAAAAAATATAATAATATAAATATTTTATACGT [TGCATGCA_negctrl_site252] | 7.29 ± 0.4
21 | CATATATATATATGAACACACAAAAAGAATATTTCC [CACACA_site1493] | 7.62 ± 0.63
22 | TTCTATGCATTTATAGTGCATGTAAAATATAAGATA [GTGCAC_site9466] | 10.2
23 | AATTATATTTAGTATATGCACACTTTATGTTTGTTA [CACACA_site2025] | 9.21 ± 0.028

Row | Sequence | gcPBM binding intensity (ln)
24 | GTAGAAAGAAAAATTAGTACTTAAATATTATAAAAA [XGTACX_site8458] | 7.71 ± 0.62
25 | TCTATACCTATTCTTACACACATATGTATTTATATA [CACACA_site4475] | 8.08 ± 0.72
26 | TTTAAAAAAAAAAAAAATTTTTTTTTTTTTTTTTTA [CACACA_negctrl_site1415] | 7.33 ± 0.45
27 | AAAAAATACCAAAGGGGTACTTACACATAATACTTA [XGTACX_site2111] | 7.55 ± 0.58
28 | CTTTTTACTTAATACACACACACACCCAAAAAAAAA [CACACA_site948] | 8.53 ± 0.15
29 | CATCAAAATGAAGCATGTACATAATATAAATAAATA [XGTACX_site4647] | 7.79 ± 0.45
30 | ATTGAAGGGAAATATATAATCATATTCAAAATAAAA [CACACA_negctrl_site728] | 7.55 ± 0.79
31 | ATTTCTCTATCGTAATGTACAAAAAAAAGGGAAAAG [XGTACX_site1335] | 7.96 ± 0.52
32 | CTAATCATAAAATATACACACACGGATACATTAAAT [CACACA_site2685] | 7.89 ± 0.69
33 | TTTATACTTTCAAAATGTACATATATATATATATAT [XGTACX_site6241] | 9.47 ± 0.36
34 | TAATATATAATTTTATGTACATAATTATAAACCCAT [XGTACX_site919] | 8.09 ± 0.33
35 | AAGGAATAAAATTTAGAAGACAATTTTATTTCAGTA [XGTACX_negctrl_site331] | 7.3 ± 0.51
36 | GGTATTTTCACATATAGTACACAAAAATAAAATAAA [XGTACX_site2139] | 8.48 ± 0.099
37 | TTTTTTTTTTTTTTTTTTTTTTTCTACCTATTTATT [CACACA_negctrl_site94] | 8.2 ± 0.73
38 | TTGTATAAAATATGTAGTACAATAATATAACATTTT [XGTACX_site8607] | 7.99 ± 0.18
39 | TATGTATATTGAGATTGTACTTGTAATATTAAACAT [XGTACX_site3878] | 7.71 ± 0.61
40 | AATAATAAAAATATTGTGCACTTGTATATTTATTAT [GTGCAC_site9963] | 11 ± 0.11
41 | AAGTTATACACATCAACACACACATACAACGTGGTG [CACACA_site8312] | 7.8 ± 0.55
42 | TAAACACATTATATATGTACATAATAAAAAAAAAAA [XGTACX_site7907] | 8.04 ± 0.53
43 | ATAAAATACAAAGGGACACACATATGAGTCTACAAA [CACACA_site3092] | 7.54 ± 0.6
44 | ATTTATTTATTTTCATGTACATATGTAAATCAATAA [XGTACX_site3886] | 7.77 ± 0.44
45 | TATATAATATAATGTAGTACATGTTTTATTTTTTAC [XGTACX_site7735] | 7.76 ± 0.29
